Among the data in the RNAGym collection of RNA variant scans (doi:10.7554/elife.90254) are self-cleavage values, retold here.

Read counts are not given, so values of variants with three or more changes are uncertain.

B1: OR4K15 (parent)
chain: GUUAACGGUCAUAGGCCAUGGAAACUAGGAGCACCAUUUCGCUGCCAGUGAAGAAAUGAACAAAGAAAAUCUGGGCCAGGCAGGCAUCAAAAGAAAUAGUCUUGCGCUCAACCAGAAAGUCUGUAAUCAUUUUAAGGGUA

Variants of B1 are the subject of this data set. Nature of the data set: self-cleavage, relative activity (ratio to wild type); higher = more cleavage; in vitro, sequencing; the parent is a self-cleaving ribozyme.
As to A27U A95G A117G, the self-cleavage stood at 1.85.

Turning to G31A U72A U102C, the self-cleavage amounted to 0.6.

A33G A47C A54G U131C: the self-cleavage was found to be 0.52.

With A33C A56G U57C, the self-cleavage stood at 1.44.

On to A30U A82G A92G, for which the self-cleavage was 0.66.

As for A27G A95G A98G, the self-cleavage is 1.56.

As for G29U A63G U124C, the self-cleavage was 1.82.

In the case of A30G U38C U43A U49A U102A U127G, the self-cleavage was 1.26.

In the case of C32A U70C A91G A116G, the self-cleavage was 0.95.

For the variant A30G U57C A86G A110G U127C, the self-cleavage turned out to be 0.03.

Take A30G C40A A51G A110G: the self-cleavage was 0.17.

Take A27G A110G A114G A116G U139C: the self-cleavage was 0.02.

Take A30G U87C A90G A110G U131C: the self-cleavage came out at 0.02.

Consider A30G U37G A62U U124A A125G, for which the self-cleavage came to 1.34.

Regarding A30U A64G A118G, the self-cleavage is 1.55.

In the case of A30G A51G A62G, the self-cleavage turned out to be 1.99.

In the case of A30G A55G A78G, the self-cleavage was determined as 0.51.

For the variant A27G U49C A69G A92G, the self-cleavage is 1.39.

As to A30G A54U A92G, the self-cleavage came to 1.81.

As to A30G A51G A59G A82G U132C, the self-cleavage stood at 0.38.

Consider A30G A33U A86G, for which the self-cleavage was 1.35.

In the case of A27U A86U U127C, the self-cleavage turned out to be 1.35.

For the variant A30G A56G U120C A126G, the self-cleavage is 0.88.

On to A33C A52G A92G, for which the self-cleavage was 1.1.

A30G A114G A117U U124C: the self-cleavage stood at 0.19.

For the variant A30G U100C U102A U122C, the self-cleavage was 2.02.

As for A30U U70C U87A, the self-cleavage came out at 0.99.

Turning to A30G U37C A51G A92G, the self-cleavage came out at 2.19.

As for A30U U108C A118G U122A U131C, the self-cleavage is 0.

Consider G31A A66G A117G U133A, for which the self-cleavage worked out at 2.37.

A27U U43A U122C: the self-cleavage worked out at 1.

Consider A30G A82G A118G, for which the self-cleavage is 0.08.

Turning to A27G G123A U133A, the self-cleavage came to 0.85.

With A27U A59U A82G, the self-cleavage was 0.53.

A30G U39C A95G: the self-cleavage stood at 1.51.

On to A30G A62G U72A A116G, for which the self-cleavage worked out at 0.05.

Take A27G C32U U39A A52G A56G A111G A125U: the self-cleavage amounted to 0.05.

With A30U A63G U122C, the self-cleavage was found to be 0.9.

As to A33C A64G U131C, the self-cleavage was determined as 1.56.

With G31U A55G A86G U87C, the self-cleavage turned out to be 0.24.

With A30G A33G C85U A94G U102C, the self-cleavage was found to be 0.54.

Regarding A30G U38C U43C A110G A111G, the self-cleavage stood at 0.02.

As to A30U U39C U70C, the self-cleavage stood at 0.73.

As to A30G U38C A62G A78G, the self-cleavage came to 0.38.

For the variant A30G A33C U49C A89C U97C U131C, the self-cleavage was 0.3.

With A30U A51G U97A U132C, the self-cleavage is 0.39.

Consider A30U A55G G136A, for which the self-cleavage was determined as 1.1.

In the case of A30G A56G U100C U120C, the self-cleavage was determined as 2.26.

A30U A47G A111G: the self-cleavage was 0.07.

Turning to A27G A111U A118G, the self-cleavage amounted to 0.07.

Consider A30G A56G A62G, for which the self-cleavage is 1.2.

A30G U39C A82G: the self-cleavage amounted to 0.44.

A30C U72C A86G: the self-cleavage was 0.2.

With A27U A56G A117G, the self-cleavage was determined as 2.05.

On to G31U A68U A92U U130C, for which the self-cleavage worked out at 1.06.

On to A30G A95G U108C, for which the self-cleavage is 0.

As to A30G U37C A47U A78G G79U, the self-cleavage came to 0.11.

For the variant A30U A52G A66G, the self-cleavage was 1.92.

As to A27U U87A A126G, the self-cleavage came to 1.2.

For the variant A27G U39C A56G A66G U127C U139A, the self-cleavage amounted to 0.34.

A30G U102C U139A: the self-cleavage stood at 1.24.

In the case of A27U C35A U102C A125U, the self-cleavage came to 1.9.

As to G29U A55G A92G, the self-cleavage was 2.25.

Regarding A30G A51G A56G A59G A66G A67G A86G U108C, the self-cleavage was determined as 0.09.

Turning to A27U A96G A116G, the self-cleavage stood at 0.53.

On to A30G A56G A98G U127G, for which the self-cleavage was determined as 0.6.

Turning to A30U A59G U72C, the self-cleavage turned out to be 0.42.

Take A30G A56G A86U U122C G137C: the self-cleavage came out at 1.99.

Take A27G U43A A89G: the self-cleavage is 0.53.

With A27U A66G U87C, the self-cleavage was 1.68.

For the variant A30G C40U A111G, the self-cleavage amounted to 0.

For A27U A62G A89U U132C, the self-cleavage is 2.15.

Regarding C32U U49C C107U, the self-cleavage was found to be 0.03.

As to A27G U100C A135U, the self-cleavage was 1.62.

Consider C32A U57C U100C, for which the self-cleavage was 1.7.

Regarding C32G U57C U120C, the self-cleavage was 0.9.

A30G A56G A92C A96G: the self-cleavage was 0.37.

On to C32U A78G U87A, for which the self-cleavage is 0.15.

As to A30C C76G A92G U108C A118G, the self-cleavage was found to be 0.01.

For A30G U87C A111G G137A, the self-cleavage was 0.01.

A30G G74A A82G C85A U102A U139C: the self-cleavage amounted to 0.1.

In the case of A30G U37C A56G, the self-cleavage came out at 1.23.

On to G31A A66G A69G, for which the self-cleavage stood at 2.04.

With G29U U57A U122C, the self-cleavage was 0.99.

As for G31A U43A A94G, the self-cleavage was 1.78.

Consider G28C A54U U102A, for which the self-cleavage came out at 1.14.

For A30G A91C A92G A114G G119U, the self-cleavage worked out at 0.73.

For A33G A47G A95G, the self-cleavage amounted to 1.63.

A30G U39A U103C: the self-cleavage is 1.3.

As to A30G U72C U100C, the self-cleavage worked out at 0.6.

Regarding A30G C71U U132C, the self-cleavage turned out to be 0.35.

Consider A30G A60G U70C, for which the self-cleavage amounted to 0.81.

Regarding A27U A86C U131C, the self-cleavage came to 0.48.

A30G U70C A92U A116G: the self-cleavage was 1.14.

Regarding A30G A68G U133C, the self-cleavage came to 1.32.

In the case of A30G U97C A98G U124C, the self-cleavage turned out to be 0.17.

With A33G A36U U49G, the self-cleavage was found to be 0.52.

In the case of A30G A62G A66G A111U, the self-cleavage is 0.07.

With A30G A56G U100C C112U A114G, the self-cleavage was determined as 0.

Take A30G A66G A89U A94G A118G: the self-cleavage is 1.29.

As for G29U A47G A67G A69G A110G, the self-cleavage worked out at 0.12.

Consider G31U U37A A66G, for which the self-cleavage came out at 0.8.

Consider A30G A78G A92G, for which the self-cleavage turned out to be 0.27.

As for A30G A63G A95G, the self-cleavage was 1.57.

For the variant A30C A69G U87C U102C U122C, the self-cleavage came out at 1.87.

As for A30G A62U A82U, the self-cleavage is 0.27.

As to A30G A68U A78U A111G U130C, the self-cleavage worked out at 0.01.

In the case of A30U U37C A56C A91G, the self-cleavage was 1.18.

For the variant G28U C40A U102C U108A, the self-cleavage was 0.01.

For A30G A78G A92G C105U, the self-cleavage is 0.08.

Take A30U U49G A90U A117G U131A U132C: the self-cleavage worked out at 1.78.

Take G28A A54G A55U A59G A90U A95G: the self-cleavage was determined as 1.96.

Regarding A30G A68G U87C A117U, the self-cleavage came out at 0.66.

Consider G29U A36G U43C U70C A111G, for which the self-cleavage was found to be 0.03.

With A30G A55G A91G, the self-cleavage was 0.39.

As to G28A A68U A91G A98G, the self-cleavage was found to be 0.42.

For the variant A33C G48U A95G, the self-cleavage worked out at 2.05.

For the variant A30G A54G A60G, the self-cleavage was 1.16.

As for A27U A33G A66C A86U A114U, the self-cleavage was found to be 0.12.

Take A27G C34U U70C U108C A117G: the self-cleavage turned out to be 0.

With A33C U37C A56G, the self-cleavage was 0.71.

With G29A A66G U131C U132C, the self-cleavage is 0.99.

For A30U U49A U122C, the self-cleavage worked out at 1.

On to A30G A54G A68G U131C, for which the self-cleavage worked out at 1.21.

With A27U U39C U49C U87C U97C, the self-cleavage came to 0.4.

With A30G A68G A118G A140C, the self-cleavage worked out at 0.87.

Consider G29U C40U U127C, for which the self-cleavage is 1.51.

Turning to A27G U70A U130C, the self-cleavage came out at 0.48.

With A30G U37A U49C A90G U122C, the self-cleavage was 1.09.

As to A27G A82C A92G, the self-cleavage turned out to be 0.16.

For the variant A30G U39A A90G A96G, the self-cleavage came out at 0.43.

A30U A63G U132C: the self-cleavage stood at 1.76.

As to C32U U39C A90G U102G, the self-cleavage came out at 1.2.

For the variant A30U A47G A54G U120A U122C U124C, the self-cleavage was 1.81.

Regarding A27U A78G A96C C113U, the self-cleavage is 0.01.

Regarding A27G U70A A92G, the self-cleavage was determined as 0.66.

In the case of A30U A51G A117G, the self-cleavage stood at 1.04.

On to G31U U72A A90U A96U U102C U139A, for which the self-cleavage came to 0.59.

For the variant A27G U38C A63G A67G U97A, the self-cleavage came to 0.5.

For the variant G28U A82G U103A, the self-cleavage amounted to 0.09.

Take A30G C85U A140G: the self-cleavage amounted to 0.87.

As for A33G A47G A92G, the self-cleavage was determined as 0.25.

Consider A30G A62U A140U, for which the self-cleavage is 1.11.

Regarding A30G A36G U127C, the self-cleavage worked out at 0.39.

A30G A60G A67G: the self-cleavage turned out to be 1.32.

Turning to A30G A36G A47G A56G A91G A118G, the self-cleavage came out at 1.02.

With A33C U39C A55G, the self-cleavage came out at 1.06.

Take A27U G50A A52G A56G A66G C109A: the self-cleavage amounted to 0.38.

On to G28A A30G U97C U102C U131C, for which the self-cleavage was found to be 1.91.

A27U A89U U132C: the self-cleavage worked out at 1.47.

Regarding G31A A92G A129G, the self-cleavage came out at 0.86.

Take G28A A33U U100C U103C A111G A114G A140G: the self-cleavage turned out to be 0.01.

For the variant A27U U124C U131C, the self-cleavage came out at 0.69.

Regarding A30G U37C A82G, the self-cleavage was found to be 0.86.

As for A27G U87C A117G A126G U127A U133C U139C, the self-cleavage stood at 0.

In the case of A30C A55G G93U U127C, the self-cleavage turned out to be 1.22.

G28A U49C U70C A78C: the self-cleavage is 0.26.

Regarding A27U A66U U72C, the self-cleavage was found to be 0.35.

With A30C A56G A118G, the self-cleavage is 0.38.

As to A30G A51G A56G A69G A89U A140G, the self-cleavage came out at 0.

On to A30U A59G A82G, for which the self-cleavage turned out to be 0.36.

For A30U U43C A67U A68G, the self-cleavage is 1.58.

For the variant A27G A94G A125G, the self-cleavage amounted to 0.72.

As for G28A A86G U127C, the self-cleavage is 0.86.

As to A30U A90U A94G U132C, the self-cleavage turned out to be 1.64.

As for A30G U38C A52G A54G A68G G83A A116G, the self-cleavage was determined as 0.97.

Turning to A30G A54G A89G C105U, the self-cleavage is 0.37.
